Experimental data from article PMC6212790.
Some of the results follow. At the low end of the ranking, values are background and their order means little.

Target: T1, GST-Rok-C97-191 (UniProt O34857)
T1 sequence: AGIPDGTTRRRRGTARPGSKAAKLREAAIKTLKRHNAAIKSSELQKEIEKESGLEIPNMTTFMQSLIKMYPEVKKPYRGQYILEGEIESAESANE
Assay: protein binding microarray;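 note: rank score from −0.5 (least bound) to 0.5 (best bound)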
Conditions: Rok is a gene silencer of Bacillus subtilis; high values mean tight binding; most listed sequences are background and not binding sites; double strand, one strand shown

Sequence | binding signal [E-score]
AGGAGTGA | -0.0784
ACGTCTTC | -0.0202
GAAAAATA | 0.273
CAGCCCAC | -0.133
AAAACAAA | -0.063
AAGTACAG | 0.256
CTATATTC | 0.274
AATGGTGA | 0.0161
GGTGCAAA | 0.224
CGGATGCC | -0.149
CACTATCC | -0.112
CCAACCCG | -0.123
GCCTTAGA | -0.109
TCTGACAA | -0.095
AAATTCGT | 0.18
AGGATACC | -0.171
ATCGTCAC | -0.0363
CCAAAAAA | 0.138
TGGAAACA | -0.137
ATTTAGTA | 0.4
ACCTCGGC | -0.211
ACCTCGGG | -0.00108
CAGTTCAA | 0.00966
CCTTAATA | 0.000696
AGGGTGTC | 0.0517

Sequence | binding signal [E-score]
ACTTACAA | 0.215
AGGCAGGG | -0.256
AATTAGAA | 0.202
AACGACTT | 0.0476
ACTGATCC | -0.0642
CATACATA | 0.234
ATGATGCA | -0.0342
ACCGTGAC | -0.111
AACCTACG | 0.0917
GTTAAGCA | -0.00396
AATGCGAC | 0.0487
TCAAGTCA | -0.148
ATACTTAC | 0.169
CGTAGTGA | 0.168
CTCGGACA | -0.0866
AACGGCCA | -0.2
AGAGAATC | -0.0622
TAGAGGGA | -0.0716
ACATGAAC | 0.084
TTGATAAA | 0.0291
GAGTTGTA | 0.267
GATACCAC | 0.054
GCCATAGC | -0.0185
CTTGTGTA | 0.0242
ACTCGAAG | -0.11

Sequence | binding signal [E-score]
AGTATTGA | 0.217
AAACAGTA | 0.093
AGCCCAAG | -0.124
GAAAGGGC | -0.215
ATACCTCC | 0.0179
ACATGATC | 0.13
TGGCCTAA | -0.0801
GGCGGCGA | -0.142
AAGATCAA | 0.021
CTCAAAAG | -0.223
GACGCTGA | -0.195
CGCGACTA | 0.12
AATCGCGT | -0.121
CTCGCGGC | -0.252
ATCTGCAT | 0.0255
AGGATGCC | -0.0436
ATCCTCAA | 0.0905
TAAGGTCA | -0.0185
AGTTGCTG | 0.147
ACGGCTTG | -0.0924
CTGCGATA | 0.16
AATCTGGT | 0.0864
GCTCGGTA | 0.0228
CGTCTGAA | -0.0845
AAGTGCTC | -0.0534

Sequence | binding signal [E-score]
GCTTGGAA | -0.196
GGACGCAA | 0.0622
CTTGGTGA | -0.19
ATTGTCAC | 0.138
AAATTCAG | 0.131
GCTACCGA | 0.0641
CAATCGCC | -0.327
AATTGGAA | -0.0206
GTCATTGA | 0.014
CTTGTCGC | -0.267
GCTTACTA | 0.0198
CGAATTAC | 0.255
ACCAAAGA | 0.0254
AAAGACAG | -0.157
ATCCTAAG | -0.0566
AAATGGAG | -0.137
CCCATCCA | -0.233
GGCCATGA | -0.246
AGACGTTC | -0.172
ATGGTCGA | -0.18
CACTTATG | 0.0791
CAGGATCG | -0.0098
ACCTATAA | 0.26
CTGGAAAC | -0.0874
CATTGCAA | 0.016

Sequence | binding signal [E-score]
CAGCCTAG | -0.19
ATGGTATA | 0.353
CCTGGGGA | -0.253
CATGGCCA | -0.0818
ACGCCTAG | -0.0162
CCCTTCGA | -0.279
CTTGAGTC | 0.0132
CACAAGGC | -0.275
GTTCCTCA | -0.174
AAAATATA | 0.399
CGGTTACC | -0.125
CAGATTAG | 0.0604
CGGACCTC | -0.297
CCACGCCC | -0.335
AAGTCTAA | -0.0843
CCCCTTTA | -0.193
CACGCGTC | -0.186
CCTGATAA | 0.0642
CAGATCAC | 0.0173
CCTATTCC | -0.0529
ACAAAGCA | 0.0742
GGCCCCAC | -0.277
GATCATCC | -0.161
AGAGTCCT | -0.257
GCTAGTAC | 0.184

Sequence | binding signal [E-score]
TATGGTCA | 0.00657
TAGTGTAA | 0.251
AGGAAACT | 0.0863
ATGGATGC | -0.0808
ATCTGGAA | 0.00973
AAGTGGGT | 0.213
CTCTAGAC | -0.0555
GGCAGCCC | -0.201
AAATCACC | 0.0056
CCGATACG | -0.0622
CCGAATTC | -0.13
AGAAAGTC | 0.196
CTTCCCGA | -0.113
GTTCTGCA | -0.0502
AAGTCTAG | 0.0844
CCTTCTTC | -0.263
AGCTCCTC | 0.0487
AAGTAGTC | 0.226
ATCGGAAG | -0.0836
CACCGAGG | -0.269
TATGATGA | 0.276
CTTCTTCC | -0.323
GTTTTAGA | 0.0136
CCGTGCAG | -0.0172
ACGGTAAG | -0.109

Sequence | binding signal [E-score]
TCCGAAAA | 0.0191
ATAGTGGA | 0.1
ACAAACGG | -0.0698
CTGTGTGA | 0.0703
ATCATACA | 0.161
AGCTTAAC | -0.0342
ACGCGACG | -0.0738
ATGTCATC | -0.181
CACTCCTC | -0.242
GTCCATCA | -0.265
ACCGGGGG | -0.0644
AGGATAGA | 0.0305
ATCTAAAC | 0.0603
CGAGCATC | -0.0706
AGGTCTCG | -0.345
ATGCATAG | 0.0578
ATACCTAC | 0.333
CTCTTTCC | -0.0674
CTGCAGCC | -0.271
CCTCTTTA | -0.057
GAGTTCAC | 0.0331
CAAACTGC | -0.12
